According to the supplement of paper PMC10126150:
Sequences with one replicate were seen in a single cluster, so their values are uncertain.

system: ATP; assay: switch fluorescence ratio, 500 uM ATP over buffer (Cy3 cluster intensity, sum of 5 cycles each) (fold (ratio)); higher = stronger signal-on switching upon ATP binding; sequences stand for … in TCGTCGGCAGCGTCAGATGTGTATAAGAGACAGTTTTTTTTTTTTTTTTTTTTTTTTT…TC; conditions: aptamer strand: ATP DNA aptamer (quencher-CACCTGGGGGAGTATTGCGGAGGAAGG + anchor), 100 nM annealed; ATP concentration: 500 uM; one replicate
Procedure, shortened: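 Per cluster, summed Cy3 intensity from the target cycles was divided by that from the buffer cycles to give the fluorescence ratio, then averaged per switch-domain sequence. Clusters outside 100-1000 RFU were excluded. The Cy3-labelled switching-strand clusters, on a modified Illumina MiSeq flow-cell, were annealed to 100 nM quencher-labelled ATP aptamer and imaged in selection buffer, then after 15 min with 500 uM ATP at 22 °C, for five cycles with NaOH stripping and re-annealing between them.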
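Note: ATP exposure 15 min at 22 °C before imaging.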

Sequence	switch fluorescence ratio
ATTTAGGGAG	0.994
GCACGCAGCG	0.934
TGTAGTGGGT	0.995
TTTTAGGAAA	0.964
CCTATCATTT	0.993
TCGGCCACCT	0.952
CATGAGGTGT	1.04
TGCCGTGACT	0.987
TTCCATTGGC	0.944
GTGGGGTTG	0.964
GTTGAAGACA	0.982
CCGACTGTGG	0.999
AGCTGCGCGT	0.998
CTATACAGGG	1.03
AACATGGTT	1.01
AGGTATGGGC	1.03
GCGTCGATAC	5.78
GGAGGTCAAA	0.98
CCTGAAGTGC	1.38
CGCCTACGGT	1.04
CTAAATATCT	1.03
CGGATCACGG	0.975
GGATCTATAT	0.976
ATCGCCTAAA	1.01
GCAAGACTGA	1.6
ATGTTTAATA	1.03

Sequence	switch fluorescence ratio
CGAAGTTACC	1.17
CGTTACTGTT	0.971
TGGTTACTAT	1.03
ATATGTGATA	0.952
GCCACAGGGG	4.32
ACCTTACATG	1.2
GAGGACGACA	1.01
GTGCCCGGGT	1.04
TGAGCGCAAG	1.09
AAGGTAACCG	1.02
TCAGTTGCAG	0.983
AAGCCAGGCA	1.04
GGTCATTGGT	1.01
TGGGATCTGC	0.941
CACACCTCTC	1.07
GCCGAGTCGC	0.995
TCGATGTTAA	1.02
TTTCCAAAGT	0.985
AGAAGATAAA	1.04
TTCATCCTGA	1.07
AAGCGACTAG	1
ATCCAAGATC	1.3
TTTGGTCAGC	1.02
CTTCGGGAAT	1.25
AACCACGGCA	1.25
CGCACGCTTG	1.02

Sequence	switch fluorescence ratio
AGGGAGGGGC	1.03
AGAAGGGGCA	0.997
AGAAGCGCTA	0.912
AGGGGACACG	1.05
GCCTTGAGCG	1.02
TGTTAGAAGG	1.03
AGCTTCCGCC	2.98
AAAGTTCAAA	0.971
CAACCGCGGG	1.06
TGTCACGTAG	1.05
TTGCGAAA	1.01
TTCTTCTCCT	0.972
ACGCCGTGGA	1.02
ACACTGCCG	1.16
ATTGGATCAT	0.985
TGTAGATGTG	1
CATGTGCGAC	1.24
GGACTCTTT	0.994
GGAGCGATCA	1.15
GTGGCGAAAA	0.963
TGGAGTCGCT	1.01
GATGTGGTTT	1
GTAAGGACAT	1.06
AAAGGGAGCA	0.986
CGCTGGTAGC	0.994
GCGGTTGGCA	0.991

Sequence	switch fluorescence ratio
TCGGTGAGAA	0.973
TCATTGGGCA	0.977
CTTTACGCCA	1.22
TTGCTGGGGC	1
GTAATAGTCT	1.04
TTGTATACTA	0.99
CATGCCCGGT	1.06
TAATTTAGAG	0.985
TTTGGCGGTG	1.05
TTTGCACTCA	1.09
GACCTGATAT	1.03
TCGGAGCCT	1.08
CTAATCTTTT	0.97
GGAGTGCATA	1.03
CAGGGGTTG	0.956
CTATGGGTAA	1.01
CTAATGACTA	1.05
AGTCCGCGTT	1.82
TTGGGTCTAA	1.03
TGAGATAGTG	1.01
CCTAATAGAG	0.969
TAGCAGGGA	1.04
CTCAGCCGCG	1.04
ACCGTGCCGA	1.07
CCATCTGCGG	1.51
ATCCGGAGG	0.98

Sequence	switch fluorescence ratio
GAGCGCTGTA	1.01
GAATGACGAG	0.975
GATGTATGT	0.996
GTCGTAGCAG	1.01
CTCCACACGT	1.31
ATAAGATCAT	1
GAAAGTAGTT	0.969
ATATGGAGAG	1.03
GCTCAGTCAG	1.3
CTCCACCGGT	1.55
GTCGGAATGT	1.02
TCCAGCGGGA	0.971
GTGCATAAGG	1.05
CCATGTGCGT	1.03
TCGTTGTTTG	0.981
GACCATAGGT	0.989
TCTGAAGAGA	1.02
ATAGTACCT	1.21
CCATTGTCTG	0.984
TATTGCCCCT	0.971
ACGATGCAG	1.16
AATTTGGACG	0.929
GGGCACAGAC	1.1
CGGGTTTTAG	0.987
CATGACAA	0.989
AGAACCAGGG	1.07

Sequence	switch fluorescence ratio
CAGGGCTGAA	1
ATCATGGATC	0.955
ACATGATCCT	1.03
TTAGTGAACT	1.03
CTTGCACGTC	1.06
GCATTATGAT	1.04
TGATGTCCTT	0.975
AATGCAAATG	0.983
GATGAATGCG	0.98
AAGTGTTCGC	0.995
TTATTCAGGG	0.994
GGGGCTGTA	1.07
TCATGTCCA	1.01
GATCTCGCCG	0.961
GTGGTAATTT	0.981
AATGCGGACA	1
TAAGTCAAGG	1
ATGTTGCTTT	0.958
TTAGCATCCA	1.03
TTACGACACG	1.34
ACACTAGTCG	1.02
TTCCAACTTT	0.95
ATAGAGGGAG	1.01
GAATGTGCCC	1.04
TTTGGGTACA	0.996
TTGTCTAAGC	1.04

Sequence	switch fluorescence ratio
GATGGGTCCT	0.968
AAGTCAATAT	1.41
GCAGTTGGCG	0.999
AATTGGCGGG	1.01
TTTTAGGG	1.4
ATCTATAGA	1
GGAAGATCCG	0.963
GGCCGGAGCT	1.02
CTGGGCATTA	1.16
TAATGAACGG	1.02
AAGCGATCTG	0.995
CTATGTTAGC	1.01
AACTAATATT	1.04
CTTGATCTAG	1
ACGGCACAAC	1.38
AGGGACGCCC	1.61
GTGGCAGCCC	1.01
ATATGAGGTC	0.934
ATATTACCCA	1.06
GTGGGTCCAA	0.986
TTCGCCCTGT	1.04
ACATGTTTGC	1.04
ACCAGAGTCA	0.987
GGCGTCAGCA	0.98
TAAATATATA	1
ATAGGATTGA	1

Sequence	switch fluorescence ratio
TTATAGACTC	1.06
CGCAGATGGT	1.09
GTCGGTTTGT	0.969
GGGAACCATA	0.958
GGCCTTGTTG	1.04
CATCGACAGC	1.08
CGAAGTTACT	1.04
CGATAACGCT	1.02
TTTAAAGTGC	1.09
CGGGGACATT	1.04
TTTACGCGCC	1.1
TGAATATTG	1.01
GGCTACACTA	1.02
AGTCGAGCTG	1.01
CCTAAGAACC	1.03
CAACGTAGAC	2.29
TACATTTTAT	1.01
AGTCCTGCCT	1.06
CTAGAGAGG	0.959
